We go through six molecules from patent publication US20230183352A1 (published 2023).

Assay [1] addresses T1, Biotin QP004.3 (biotin-PDL1-FC) (human, UniProt Q9NZQ7 partial chain, limits assumed, biotin label, site not stated).
T1 construct: In-house protein QP004.3
The assay can be described thus: PD-L1 binding ELISA, antibody coated, biotin-PDL1-FC titrated. On the technique in general: ELISA stands for enzyme-linked immunosorbent assay.

For assay [2], the target named is T2, Biotin QP004.3 (biotin-PDL1-FC) (human, UniProt Q9NZQ7 partial chain, limits assumed, biotinylated (sites not given)). The assay can be described thus: PD-L1/PD-1 blocking ELISA, PD1-FC coated; row labelled EC50; competitor PD1-FC.
The target in assay [3] is T2, Biotin QP004.3 (biotin-PDL1-FC). The assay can be described thus: PD-L1 binding ELISA, antibody coated, biotin-PDL1-FC titrated.
For assay [4] the target is unchanged. Briefly: PD-L1/PD-1 blocking ELISA, PD1-FC coated, biotin-PDL1-FC plus antibody, duplicate wells; competitor PD1-FC.

T2 sequence (Q9NZQ7 19-238 limits assumed): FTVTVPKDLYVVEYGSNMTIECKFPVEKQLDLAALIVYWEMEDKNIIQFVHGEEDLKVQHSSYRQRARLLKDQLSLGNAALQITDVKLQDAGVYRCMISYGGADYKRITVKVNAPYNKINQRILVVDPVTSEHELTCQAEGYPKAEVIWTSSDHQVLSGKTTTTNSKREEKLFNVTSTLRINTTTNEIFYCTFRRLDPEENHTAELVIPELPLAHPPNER

B1: QP3691433 (bispecific antibody, human IgG1, kappa)
heavy: EVQLVESGGGLVKPGGSLRLSCAASGFTFSNYAMSWVRQAPGKGLEWVASIISGGRTYYLDSEKGRFTISRDNAKNSLYLQMNSLRAEDTAVYYCTRIYYGNSFDYWGQGTLVTVSS[here human IgG1 constant region without letters]GGGSGGGGSGGGGSGGGGSEVQLLESGGGLVQPGGSLRLSCAASGFTYGTYAMSWFRQAPGKGREGVACIDIYGRASYTDPVKGRFTISQDNSKNTLYLQMNSLKAEDTAVYYCAARDFGYCTASWVHEGFSRYWGQGTLVTVSS
light: DIVMTQSPDSLAVSLGERATINCKSSQSLLNSGNQKNYLTWYQQKPGQPPKLLIYWASTRESGVPDRFSGSGSGTDFTLTISSLQAEDVAVYYCQNDYSYPFTFGQGTKLEIKRTVAAPSVFIFPPSDEQLKSGTASVVCLLNNFYPREAKVQWKVDNALQSGNSQESVTEQDSKDSTYSLSSTLTLSKADYEKHKVYACEVTHQGLSSPVTKSFNRGEC
notes: also called QD3691433 (HuQP190191/QP322)
For the molecule B1, the binding result in assay [1] is reported as “binds”.

B2: QP3701440 (bispecific antibody, human IgG1, kappa)
light: DIVMTQSPDSLAVSLGERATISCKSSQSLLNSGNQKNYLTWYQQKPGQPPKLLIYWASTRESGVPDRFSGSGSGTDFTLTISSLQAEDVAVYYCQNAYSYPFTFGQGTKLEIKRTVAAPSVFIFPPSDEQLKSGTASVVCLLNNFYPREAKVQWKVDNALQSGNSQESVTEQDSKDSTYSLSSTLTLSKADYEKHKVYACEVTHQGLSSPVTKSFNRGEC
heavy: QVQLVQSGAEVKKPGASVKVSCKASGYAFSSYWMNWVRQAPGQGLEWIGQIYPGNGDTTYNGKFKGRVTMTADKSTSTVYMELSSLRSEDTAVYFCARFVKGNAMDYWGQGTLVTVSS[here human IgG1 constant region without letters]GGGSGGGGSGGGGSGGGGSEVQLLESGGGLVQPGGSLRLSCAASGFTYGTYAMSWFRQAPGKGREGVACIDIYGRASYTDPVKGRFTISQDNSKNTLYLQMNSLKAEDTAVYYCAARDFGYCTASWVHEGFSRYWGQGTLVTVSS
notes: Anti-CLDN18.2 IgG with the anti-PD-L1 VHH QP322 at the C-terminal of the heavy chain by linker (G4S)4; also called QD3701440 (HuQP192193/QP322)
B2 showed an IC50 in assay [2] of 4.69 nM. Also, the EC50 in assay [3] stood at 6.11 ng/mL.

B3: QP3691433 (bispecific antibody, human IgG1, kappa)
light: DIVMTQSPDSLAVSLGERATINCKSSQSLLNSGNQKNYLTWYQQKPGQPPKLLIYWASTRESGVPDRFSGSGSGTDFTLTISSLQAEDVAVYYCQNDYSYPFTFGQGTKLEIKRTVAAPSVFIFPPSDEQLKSGTASVVCLLNNFYPREAKVQWKVDNALQSGNSQESVTEQDSKDSTYSLSSTLTLSKADYEKHKVYACEVTHQGLSSPVTKSFNRGEC
heavy: EVQLVESGGGLVKPGGSLRLSCAASGFTFSNYAMSWVRQAPGKGLEWVASIISGGRTYYLDSEKGRFTISRDNAKNSLYLQMNSLRAEDTAVYYCTRIYYGNSFDYWGQGTLVTVSS[here human IgG1 constant region without letters]GGGSGGGGSGGGGSGGGGSEVQLLESGGGLVQPGGSLRLSCAASGFTYGTYAMSWFRQAPGKGREGVACIDIYGRASYTDPVKGRFTISQDNSKNTLYLQMNSLKAEDTAVYYCAARDFGYCTASWVHEGFSRYWGQGTLVTVSS
notes: Anti-CLDN18.2 IgG with the anti-PD-L1 VHH QP322 at the C-terminal of the heavy chain by linker (G4S)4; also called QD3691433 (HuQP190191/QP322)
B3: in assay [2], the IC50 is 4.5 nM. Also, in assay [4], the “ELISA reading at 0.4115 nM antibody” value came out at 2.05. The molecule also yielded an EC50 in assay [3] of 4.22 ng/mL.

B4: QP3711461 (bispecific antibody, human IgG1, kappa)
heavy: QVQLVQSGAEVKKPGASVKVSCKASGYTFTSYIMHWVRQAPGQGLEWMGYINPYNDGTKYNEKFKGRVTMTRDTSTSTVYMELSSLRSEDTAVYYCARLGFTTRNAMDYWGQGTLVTVSS[here human IgG1 constant region without letters]GGGSGGGGSGGGGSGGGGSEVQLLESGGGLVQPGGSLRLSCAASGFTYGTYAMSWFRQAPGKGREGVACIDIYGRASYTDPVKGRFTISQDNSKNTLYLQMNSLKAEDTAVYYCAARDFGYCTASWVHEGFSRYWGQGTLVTVSS
light: DIVMTQSPDSLAVSLGERATINCKSSQSLLNSGNQKNYLAWYQQKPGQPPKLLIYGASTRESGVPDRFTGSGSGTDFTLTISSLQAEDVAVYYCQNDHSYPFTFGQGTKLEIKRTVAAPSVFIFPPSDEQLKSGTASVVCLLNNFYPREAKVQWKVDNALQSGNSQESVTEQDSKDSTYSLSSTLTLSKADYEKHKVYACEVTHQGLSSPVTKSFNRGEC
notes: also called CHO14; CH014
Turning to B4, in assay [1], the binding result is “binds”.

B5: QP3701440 (bispecific antibody, human IgG1, kappa)
heavy: QVQLVQSGAEVKKPGASVKVSCKASGYAFSSYWMNWVRQAPGQGLEWIGQIYPGNGDTTYNGKFKGRVTMTADKSTSTVYMELSSLRSEDTAVYFCARFVKGNAMDYWGQGTLVTVSS[here human IgG1 constant region without letters]GGGSGGGGSGGGGSGGGGSEVQLLESGGGLVQPGGSLRLSCAASGFTYGTYAMSWFRQAPGKGREGVACIDIYGRASYTDPVKGRFTISQDNSKNTLYLQMNSLKAEDTAVYYCAARDFGYCTASWVHEGFSRYWGQGTLVTVSS
light: DIVMTQSPDSLAVSLGERATISCKSSQSLLNSGNQKNYLTWYQQKPGQPPKLLIYWASTRESGVPDRFSGSGSGTDFTLTISSLQAEDVAVYYCQNAYSYPFTFGQGTKLEIKRTVAAPSVFIFPPSDEQLKSGTASVVCLLNNFYPREAKVQWKVDNALQSGNSQESVTEQDSKDSTYSLSSTLTLSKADYEKHKVYACEVTHQGLSSPVTKSFNRGEC
notes: also called QD3701440 (HuQP192193/QP322)
As to B5, the binding result in assay [1] is “binds”.

B6: QP3711461 (bispecific antibody, human IgG1, kappa)
light: DIVMTQSPDSLAVSLGERATINCKSSQSLLNSGNQKNYLAWYQQKPGQPPKLLIYGASTRESGVPDRFTGSGSGTDFTLTISSLQAEDVAVYYCQNDHSYPFTFGQGTKLEIKRTVAAPSVFIFPPSDEQLKSGTASVVCLLNNFYPREAKVQWKVDNALQSGNSQESVTEQDSKDSTYSLSSTLTLSKADYEKHKVYACEVTHQGLSSPVTKSFNRGEC
heavy: QVQLVQSGAEVKKPGASVKVSCKASGYTFTSYIMHWVRQAPGQGLEWMGYINPYNDGTKYNEKFKGRVTMTRDTSTSTVYMELSSLRSEDTAVYYCARLGFTTRNAMDYWGQGTLVTVSS[here human IgG1 constant region without letters]GGGSGGGGSGGGGSGGGGSEVQLLESGGGLVQPGGSLRLSCAASGFTYGTYAMSWFRQAPGKGREGVACIDIYGRASYTDPVKGRFTISQDNSKNTLYLQMNSLKAEDTAVYYCAARDFGYCTASWVHEGFSRYWGQGTLVTVSS
notes: Anti-CLDN18.2 IgG with the anti-PD-L1 VHH QP322 at the C-terminal of the heavy chain by linker (G4S)4; also called CHO14; CHO-14
Regarding B6, the IC50 in assay [2] is 4.37 nM. Moreover, in assay [3], the EC50 was 7.94 ng/mL.

In general, IC50 refers to the concentration at which inhibition is half-maximal. High values mean lower potency, low ones higher potency. As a reminder, the EC50 is the concentration giving half of the maximal effect. A higher EC50 goes with lower potency in that assay.
